Literature values as cited in article PMC11963566, “A phase I, single-center, randomized, open-label, three-period crossover study to evaluate the drug–drug interaction between ZSP1273 and oseltamivir in healthy Chinese subjects” (Antimicrobial Agents and Chemotherapy, 2025).

System: influenza A
Conditions: human, in vivo; cited from earlier work

O=C(O)[C@H]1C2CCC(CC2)[C@@H]1Nc1nc(-c2n[nH]c3ncc(F)cc23)nc(C2CC2)c1F [ZSP1273]
safety profile versus placebo: a safety profile comparable to placebo
